Results as given in PubChem BioAssay (NCATS).
The inconclusive results got no clear call from the source; some entries with a clear call stand among them for comparison. For some of these results: No potency is given beside an inconclusive call; the fits are too rough. Activity calls are given as the source filed them. Unless noted, calls come from the whole dose curve; as a rule, active = well fitted curve in the direction sought with a large enough effect; inconclusive = small, poorly fitted or top-dose-only effect, or another doubt; inactive = no such curve, though single readings can be large; an effect the other way counts as inactive or inconclusive. Where a SMILES comes first, the peptide text is derived from it. The star is where a group is joined. Cbz = O=C(OCc1ccccc1)*; CH2Cl = ClC*

What was measured:
[1] = qHTS of pediatric cancer cell lines to identify multiple opportunities for drug repurposing: Primary screen for SJ-GBM2 cells (AID 1347091)
Summary of the method: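 Eight- or eleven-point concentration series, 48 h treatment at 37 degrees C in growth media; readout CellTiter-Glo luminescence. Potency and efficacy were taken from the concentration-response curves.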

[2] = qHTS of pediatric cancer cell lines to identify multiple opportunities for drug repurposing: Primary screen for SK-N-MC cells (AID 1347093); settings: SK-N-MC viability, CellTiter-Glo luminescence, 48 h; activity change, negative = cytotoxic: at 46 µM (top of the series)
Summary of the method: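 Metabolically active cells were quantified by ATP-dependent luminescence (CellTiter-Glo, 15 min at room temperature) following 48 h treatment. Cells had been plated at 500-1,000 per well and settled for 5 h beforehand.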

[3] = qHTS of pediatric cancer cell lines to identify multiple opportunities for drug repurposing: Primary screen for Saos-2 cells (AID 1347097); note: nearly all actives have a fitted effect of over 40% in size
Summary of the method: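 Quantitative HTS format: each compound titrated (MIPE 11 points from 0.78 nM, NPC 8 points from 0.59 nM) onto cells plated 5 hours earlier. After 48 h at 37 degrees C, CellTiter-Glo luminescence was recorded.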

[4] = qHTS of pediatric cancer cell lines to identify multiple opportunities for drug repurposing: Primary screen for OHS-50 cells (AID 1347103); note: nearly all actives have a fitted effect of over 40% in size
Summary of the method: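 Cells (500-1,000/well) rested 5 h, then received compounds for 48 h; metabolically active cells were measured by CellTiter-Glo luminescence. Final concentrations spanned up to 46 µM (MIPE, 11-point) or 0.59 nM-46 µM (NPC, 8-point) in primary screens, 11-point in follow-ups.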

[5] = qHTS of pediatric cancer cell lines to identify multiple opportunities for drug repurposing: Primary screen for control Hh wild type fibroblast cells (AID 1347106); note: nearly all actives have a fitted effect of over 55% in size;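 for activity change, negative = cytotoxic: a drop in luminescence marks cytotoxicity and a rise apparent proliferation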
Summary of the method: (§1)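 Cells (500-1,000/well) in growth media were settled 5 h at 37 degrees C, then given compounds for 48 h. Viability was read as CellTiter-Glo luminescence. Primary runs used MIPE at 11 points (0.78 nM-46 µM) and NPC at 8 points (0.59 nM-46 µM); follow-ups used 11 points.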

[6] = Quantitative High-Throughput drug screen in 47 multiple myeloma cell lines against the NCATS MIPE library collection: Delta47_JCRB cell viability assay (AID 1918925; note: nearly all actives have a fitted effect of over 45% in size); settings: Delta47 myeloma viability, CellTiter-Glo ATP, 48 h; series mostly up to 45.8 µM
Summary of the method: (§2)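 Luminescent ATP measurement with CellTiter-Glo gives viability, scaled between DMSO-only wells (100%) and media-only wells (0%). Cells, 500 per well, faced library compounds for 48 hours at 37C.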

[7] = Quantitative High-Throughput drug screen in 47 multiple myeloma cell lines against the NCATS MIPE library collection: SKMM1_PLB cell viability assay (AID 1919863); settings: SKMM1 myeloma viability, CellTiter-Glo ATP, 48 h; viability: hits give low values; note: nearly all actives have a fitted effect of over 35% in size
Summary of the method: (§3)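 Readout: median RLU from CellTiter-Glo after 5 min at room temperature. Preceding step was 48 h drug treatment of 500 cells/well at 37 °C, 5% CO2, with DMSO-only and media-only control wells.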

[8] = Quantitative High-Throughput drug screen in 47 multiple myeloma cell lines against the NCATS MIPE library collection: KMS28BM_JCRB cell viability assay (AID 1919874); note: nearly all actives have a fitted effect of over 35% in size
Summary of the method: as §3

MCC-13 = test: qHTS assay to identify novel small-molecules to repurpose for Merkel cell carcinoma treatment (AID 1296009); settings: MCC and control cell lines, CellTiter-Glo viability, 72 h; series mostly up to 46 µM; note: nearly all actives have a fitted effect of over 60% in size
Summary of the method: (§4)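 Luminescence from CellTiter-Glo, read 10 min after addition at room temperature, reported viability following a 72 hr, 37 degree celsius treatment with NPC or MIPE compounds in titration; values normalized to plate controls.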

[9] = target: Calcium and integrin-binding protein 1 (Homo sapiens) (UniProt Q99828); test: Primary qHTS for Identification of Calcium Integrin Binding Protein 1 (CIB1) Competitor (AID 1508620)
Sequence of UniProt Q99828 (Q99828 whole entry, looked up): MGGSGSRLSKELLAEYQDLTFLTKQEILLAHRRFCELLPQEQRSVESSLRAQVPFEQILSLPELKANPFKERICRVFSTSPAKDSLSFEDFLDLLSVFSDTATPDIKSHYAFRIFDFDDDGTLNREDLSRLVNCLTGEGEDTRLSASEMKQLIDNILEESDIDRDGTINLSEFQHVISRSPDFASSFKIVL
Summary of the method: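 Fluorescence polarization competition: CIB1-GST (1 uM final) preincubated with compound 15 min at room temperature, then FITC-labeled alphaIIb peptide (100 nM final) added for another 15 min. Polarization read at Ex 480/Em 540.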

[10] = target: Cytochrome P450 2C9 (Homo sapiens) (UniProt P11712); test: Cytochrome P450 family 2 subfamily C member 9 (CYP2C9) small molecule antagonists: luciferase biochemical (cell-free) qHTS assay (AID 1645842; active = well fitted curve in the direction sought with a large enough effect in the repeat runs; inconclusive = weak or mixed curves; inactive = no such curve, though single readings can be large; an effect the other way counts as inactive or inconclusive; note: nearly all actives have a fitted effect of over 55% in size)
Sequence of UniProt P11712 (P11712 whole entry, looked up): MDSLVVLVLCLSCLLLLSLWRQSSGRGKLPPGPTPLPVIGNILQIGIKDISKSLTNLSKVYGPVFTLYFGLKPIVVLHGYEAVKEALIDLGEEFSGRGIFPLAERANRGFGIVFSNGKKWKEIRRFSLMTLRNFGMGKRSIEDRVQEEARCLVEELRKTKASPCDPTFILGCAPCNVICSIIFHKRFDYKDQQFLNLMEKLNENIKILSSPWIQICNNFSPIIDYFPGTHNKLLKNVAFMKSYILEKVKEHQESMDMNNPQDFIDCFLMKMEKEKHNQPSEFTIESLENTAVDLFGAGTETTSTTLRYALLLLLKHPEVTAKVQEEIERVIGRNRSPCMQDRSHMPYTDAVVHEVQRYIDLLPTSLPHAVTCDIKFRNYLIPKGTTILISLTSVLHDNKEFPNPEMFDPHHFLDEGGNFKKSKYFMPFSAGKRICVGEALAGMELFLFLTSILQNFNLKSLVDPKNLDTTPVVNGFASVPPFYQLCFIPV
Summary of the method: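 P450-Glo CYP2C9 system: proluciferin substrate with enzyme in mix containing 0.4% BSA, 10 min at room temperature, then NADPH regeneration solution added and incubated 1 h at 37C. Detection reagent stopped reaction; luminescence read after 20 min as RLU.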

[11] = qHTS of pediatric cancer cell lines to identify multiple opportunities for drug repurposing: Primary screen for LAN-5 cells (AID 1347100)
Summary of the method: as §1

[12] = qHTS of pediatric cancer cell lines to identify multiple opportunities for drug repurposing: Confirmatory screen for NB-EBc1 cells (AID 1347115); settings: NB-EBc1 neuroblastoma cells, viability (cytotoxicity); activity change, negative = cytotoxic: at 45.9 µM (top of the series);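 note: cells exposed to compound for 48 h before the viability read; nearly all actives have a fitted effect of over 45% in size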
Summary of the method: as §1

[13] = Quantitative High-Throughput drug screen in 47 multiple myeloma cell lines against the NCATS MIPE library collection: U266_ATCC cell viability assay (AID 1919864); note: nearly all actives have a fitted effect of over 35% in size
Summary of the method: as §3

MKL-2 = test: qHTS assay to identify novel small-molecules to repurpose for Merkel cell carcinoma treatment (AID 1296009); settings: MCC and control cell lines, CellTiter-Glo viability, 72 h; series mostly up to 46 µM; note: nearly all actives have a fitted effect of over 60% in size
Summary of the method: as §4

[14] = Quantitative High-Throughput drug screen in 47 multiple myeloma cell lines against the NCATS MIPE library collection: H1112_PLB cell viability assay (AID 1918967; note: nearly all actives have a fitted effect of over 30% in size)
Summary of the method: as §2

[15] = Quantitative High-Throughput drug screen in 47 multiple myeloma cell lines against the NCATS MIPE library collection: MM1R_ATCC cell viability assay (AID 1918981); note: nearly all actives have a fitted effect of over 35% in size
Summary of the method: as §3

[16] = Quantitative High-Throughput drug screen in 47 multiple myeloma cell lines against the NCATS MIPE library collection: RPMI8226_ATCC cell viability assay (AID 1919871); note: nearly all actives have a fitted effect of over 30% in size
Summary of the method: as §3

[17] = Quantitative High-Throughput drug screen in 47 multiple myeloma cell lines against the NCATS MIPE library collection: PCM6_Riken cell viability assay (AID 1919870); note: nearly all actives have a fitted effect of over 30% in size
Summary of the method: as §3
Potency is the fitted concentration of half-maximal effect; tags give direction and shape of the fitted curve.

Cc1cc(Nc2cc(CN3CCOCC3)c3nc(C)c(Cc4ccc(Cl)cc4F)n3n2)n[nH]1
Potency [1]: active: 23.5 µM | Potency [2]: inconclusive [cytotoxic, full curve, poor fit] | Potency [3]: active: 5.9 µM | Potency [4]: active: 27.3 µM | Potency [5]: inconclusive [cytotoxic, partial curve] | Potency [6]: active: 10.5 µM | Potency [7]: active: 16.6 µM | Potency [8]: active: 14.8 µM | Potency (MCC-13): inconclusive [inhibitor, single point]

C=C1C(=O)O[C@@H]2C/C(C)=C\C(=O)/C=C(\C)[C@@H](OC(=O)/C(C)=C\C)[C@H](O)[C@@H]12
Potency [9]: inconclusive [inhibitor, full curve, poor fit]

NC(=O)c1cnc(N[C@@H]2CCCC[C@H]2N)nc1Nc1cccc(-n2nccn2)c1
Potency [10]: inconclusive [inhibitor, partial curve, poor fit]

C=C1CC2OC(=O)C(=C)C2C(OC(=O)/C(C)=C\C)CC2(C)OC1=CC2=O (stereo not drawn)
Potency [9]: inconclusive [inhibitor, full curve, poor fit]

Cc1ccccc1C(=O)Nc1ccc(C(=O)N2CCCC(N(C)C)c3ccccc32)cc1 (stereo not drawn)
Potency [2]: active: 6.68 µM | Potency [5]: inactive

CC(C)C[C@H](NC(=O)CNC(=O)OCc1ccccc1)C(=O)N[C@@H](Cc1ccccc1)C(=O)CCl (Cbz-Gly-Leu-Phe-CH2Cl)
Potency [9]: inconclusive [inhibitor, partial curve, poor fit]

CC(=O)Oc1ccc(C2(c3ccc(OC(C)=O)cc3)Oc3ccccc3NC2=O)cc1
Potency [2]: inconclusive [cytotoxic, full curve, poor fit] | Potency [11]: inconclusive [cytotoxic, single point] | Potency [4]: active: 12.3 µM | Potency [5]: inconclusive [cytotoxic, single point] | Potency (MCC-13): inconclusive [inhibitor, single point]

C=CCNC1=C2C[C@@H](C)C[C@H](OC)[C@@H](O)[C@@H](C)C=C(C)[C@H](OC(N)=O)[C@@H](OC)C=CC=C(C)C(=O)NC(=CC1=O)C2=O
Potency [5]: inconclusive [cytotoxic, full curve] | Potency [12]: active: 7.37 µM | Potency [13]: active: 0.833 µM | Potency (MCC-13): active: 3.72 µM | Potency (MKL-2): inconclusive [inhibitor, full curve]

CC(C)C[C@H](NC(=O)CNC(=O)[C@H](Cc1ccc(O)cc1)NC(=O)[C@H](CO)NC(=O)[C@H](Cc1c[nH]c2ccccc12)NC(=O)[C@H](Cc1cnc[nH]1)NC(=O)[C@@H]1CCC(=O)N1)C(=O)N[C@@H](CCCN=C(N)N)C(=O)N1CCC[C@H]1C(=O)NCC(N)=O (stereo in doubt)
Potency [1]: inactive | Potency [2]: inconclusive [cytotoxic, partial curve, poor fit] | Potency [10]: inactive

CCCCCCCCCCCCCCNCCO
Potency [4]: inconclusive [cytotoxic, single point] | Potency [9]: inactive

O=C(c1ccccc1)c1c(O)cc(O)cc1O[C@@H]1O[C@H](CO)[C@@H](O)[C@H](O)[C@H]1O
Potency [9]: inconclusive [inhibitor, full curve]

COc1cc(C(=O)N2CCC(N3CCN(C)CC3)CC2)ccc1Nc1ncc2c(n1)N(C)c1ccccc1C(=O)N2C
Potency [11]: active: 5.26 µM | Potency [4]: active: 7.69 µM | Potency [5]: inconclusive [cytotoxic, partial curve, poor fit] | Potency [10]: inconclusive [inhibitor, partial curve, poor fit] | Potency [14]: inconclusive [cytotoxic, partial curve] | Potency [7]: active: 5.9 µM | Potency [13]: active: 2.09 µM | Potency (MKL-2): active: 2.35 µM

C[C@H](CN(C)C)Oc1nc(Nc2cc3cccc(Cl)c3cn2)cnc1C#N
Potency [10]: inconclusive [inhibitor, partial curve]

CCn1cc(-c2ccnc3[nH]c(-c4cccc(CN(C)C)c4)cc23)c(-c2ccc(NC(=O)N(C)C)cc2)n1
Potency [11]: active: 0.0264 µM | Potency [4]: active: 3.85 µM | Potency [5]: active: 20.9 µM | Potency [12]: inconclusive [cytotoxic, partial curve] | Potency [6]: active: 3.32 µM | Potency [15]: active: 20.9 µM | Potency [16]: active: 14.8 µM | Potency (MCC-13): inconclusive [inhibitor, partial curve]

CC1CCCC[C@H]2C(=O)C=C[C@H](O)[C@@H]2CC(=O)O1 (stereo partly drawn)
Potency [9]: active: 28.2 µM

Cc1cc(CN2CCN(c3c(Br)cnc4nc(-c5ccc(N6CCN(C)CC6)cc5)[nH]c34)CC2)no1
Potency [3]: inconclusive [cytotoxic, partial curve] | Potency [4]: active: 30.6 µM | Potency [6]: active: 2.64 µM | Potency [17]: active: 3.32 µM | Potency [16]: active: 29.6 µM | Potency [8]: active: 2.96 µM | Potency (MCC-13): inconclusive [inhibitor, full curve] | Potency (MKL-2): active: 26.4 µM

Cc1ncc(CCCN(C)C)cc1Nc1ncc2c(n1)-c1ccc(C(F)(F)F)cc1NC(=S)C2
Potency [10]: inconclusive [inhibitor, single point]
